Test results taken from PubChem BioAssay (NCI).
“And” between values parts separate entries of the source, which are not always exact repeats. Equal entries are not always repeated.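 All cell lines were grown in 96-well plates and treated with compound for 48 hours. GI50: concentration for 50% inhibition of growth. TGI marks complete inhibition of growth.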

test system: NCI-H322M lung; experiment: inhibition of tumour cell growth, NCI panel, 48 h

Structure (SMILES) | TGI | GI50
CC(C)(C)NNC(=O)/C(=C/c1ccc(Oc2ccc(Cl)c(Cl)c2)cc1)NC(=O)c1ccccc1 | > 100 µM | –
CC1=CC=NN2C(=O)[C@H](C)C2C1 (stereo partly drawn) | > 100 µM | –
OC(c1cc2cc(Br)ccc2c2cc(Br)ccc12)C1CCCCN1 (stereo not drawn) | 3.69 µM | 1.95 µM
CC(=O)N1CCC2(C=Nc3ccccc32)CC1 | > 100 µM | –
CN(C)c1ccc(-c2cc(=O)c3ccccc3[nH]2)cc1 | > 100 µM | –
Cc1ccc(Nc2nc(NCCO)c3ccccc3n2)cc1C | 25.4 µM | 11.8 µM
COc1nc2c(OC)cccc2c(OC)c1C=O | > 100 µM | –
CCN(CC)CCCN(c1cc(OC)cc2nccnc12)S(=O)(=O)c1ccc(C)cc1 | > 100 µM | –
CC(=O)ON(OC(C)=O)c1ccc(C)cc1 | > 100 µM | –
CN1CCN(Cc2ccc(-c3cc4ncnc(Nc5ccc(OCc6cccc(F)c6)c(Cl)c5)c4s3)o2)CC1 | 8.08 µM | 3.78 µM
COc1ccc2[nH]cc(CCNC(C)=O)c2c1 | > 100 µM | –
COc1ccc(OC)c(C2CCc3nc4nc(N)nc(N)c4cc3C2)c1 (stereo not drawn) | 7.11 µM | –
Cc1ccccc1NC(=O)NC(Oc1ccccc1)(C(F)(F)F)C(F)(F)F | > 100 µM | –
Cn1ncc(=S)[nH]c1=S | > 100 µM | –
O=C(Cn1c(=O)ccn(C2OC(CO)C(O)C2F)c1=O)c1ccc(F)cc1 (stereo not drawn) | > 100 µM | –
COC(CN(C)C(=O)C(C)NC(=O)c1ccccc1)OC (stereo not drawn) | > 100 µM | –
CCN(CC)C(=S)SS(=O)(=O)c1ccccc1C(=O)O | > 100 µM | –
CC(=O)N=C(N=Nc1c(O)[nH]c2ccc(C)cc12)NC(C)=O | > 100 µM | –
CC/C(=N\NC(=O)c1cccnc1)c1ccc2c(c1)OCCO2 | > 100 µM | –
O=C(Nc1ccc(Cl)c(C(F)(F)F)c1)C(=O)C(C(=O)/C=C/c1ccccc1)C1OC(=O)c2ccccc21 (stereo not drawn) | > 100 µM | –
COc1ccc(CN2C(=O)/C(=C\c3cc(OC)c(OC)c(OC)c3)c3cc(OC)ccc32)cc1 | > 59.5 µM | 3.8 µM

Structure (SMILES) | TGI | GI50
CCOC(=O)c1nc2cc(N3CCOCC3)c(F)cc2[nH]c1=O | > 100 µM | –
Oc1c(CN2CCC(N3CCOCC3)CC2)cc(Cc2cc(CN3CCC(N4CCOCC4)CC3)c(O)c3ncccc23)c2cccnc12 | 53.7 µM | 0.229 µM
Cc1[nH]c(=O)[nH]c(=O)c1N(CCF)CCCl | 1020 µM and 1620 µM and 1520 µM | 282 µM and 400 µM
COc1ccc(C(=O)Cn2c(C(=O)c3ccc(Cl)cc3)nc3ccccc32)cc1 | > 100 µM | > 60.9 µM
CSC(=S)c1ccc(C(=S)SC)cc1 | > 100 µM | –
NC(=S)/N=C/c1c(O)c2ccccc2oc1=O | > 100 µM | –
CN(C)c1nc(N(C)C)nc(N(C)C)n1 | > 150 µM | –
O=C(/C=C/c1ccco1)c1ccc(Nc2nc(Nc3ccc(F)cc3)nc(Nc3ccc(Cl)cc3)n2)cc1 | > 35.1 µM | 1.46 µM
Cc1c(N2C(=O)/C(=C/C=C/c3ccccc3)N=C2c2ccccc2)c(=O)n(-c2ccccc2)n1C | > 100 µM | –
CN1C2CCC1CC(OC(c1ccccc1)c1ccccc1)C2 (stereo not drawn) | 66.9 µM | –
O=[N+]([O-])c1cnc(Sc2ccncn2)c([N+](=O)[O-])c1 | > 100 µM | > 100 µM
Nc1c(C(=O)Nc2ccccc2)sc2nc3c(cc12)CCCCCC3 | 24.9 µM | 2.31 µM
COc1ccc(/C=C2\C=Cc3ccccc32)cc1OC | > 100 µM | –
CCC/C(=N\NC(=S)N1CCN(c2ccccn2)CC1)c1ccccn1 | 1.25 µM and 1.65 µM | 0.0326 µM
CC(C)C[C@H](NC(=O)[C@H](Cc1ccccc1)n1ccc(N2CCCCC2)cc1=O)B(O)O | > 100 µM | > 100 µM
CN(C)CCCCN1CCc2c(n(C)c3ccccc23)C1=O | > 100 µM and 72.2 µM | 81.1 µM and 26.8 µM
O=[N+]([O-])c1ccc(N2CCN(Cc3ccccc3)CC2)c2c1no[n+]2[O-] | 8.92 µM | 3.37 µM
CNC(=S)/C(=N\Nc1nc[nH]c1C(N)=O)C(N)=S | > 61.6 µM | –
Brc1cccc(/C=C/CN2CCN(CCOC(c3ccccc3)c3ccccc3)CC2)c1 | 32.7 µM | –
Oc1ccc(C(c2ccccc2)(c2ccccc2)c2ccccc2)cc1 | 35.5 µM | 19 µM
CNc1ccccc1C(=O)N/N=C/C=C/c1ccccc1 | > 100 µM | 9.19 µM
